Hit rate of the full screen: of about 410,000 compounds, about 260 (0.063%) were called active. The shares of active, inactive and inconclusive entries below differ from those in the screen. The call rests on the fitted dose curve; in most records, active means well fitted activation curve with a large enough effect; inconclusive means small, poorly fitted or top-dose-only effect; inactive means no such curve, though single readings can be large or run the other way. Potencies of inconclusive entries are left out as doubtful fits.
assay: qHTS for compounds that reverse cellular toxicity of Amyloid beta (A-beta) peptide in yeast: Primary Screen; conditions: yeast expressing A-beta42, growth rescue, OD600, 48 h; growth rescue: at 46.1 µM (top of the series), 0% DMSO, 100% iron-clioquinol control; further: nearly all actives have a fitted effect of over 55% in size
Procedure, shortened: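 Growth rescue measured by 600 nm absorbance after 48 h yeast culture at 30 C with compound. Values normalized between DMSO and an equimolar ferric chloride plus clioquinol control.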
Potency means the concentration at half of the fitted maximal effect; tags describe the fitted curve by direction and shape.

| SMILES | growth rescue | Potency |
| --- | --- | --- |
| COc1ccc(NC(=O)Cn2c(=O)n(-c3ccc(Cl)cc3)c(=O)c3c(C)c(C(=O)N(C)C)sc32)cc1Cl | inactive: -4.45% | – |
| Cc1cc(C(=O)C(=O)NC(C)C)c(C)n1-c1ccc([N+](=O)[O-])cc1 | – | inconclusive [activator, partial curve] |
| Cc1ccc(CCNC(=O)CCSCc2ccc(Cl)cc2)cc1 | – | inconclusive [activator, full curve] |
| CCN(CC)CCn1cnc2c([nH]c3cccc(OC)c32)c1=O | – | inconclusive [activator, partial curve, poor fit] |
| O=C1C(=O)N(Cc2cccs2)c2ccccc21 | – | inconclusive [activator, partial curve, poor fit] |
| Cc1csc(NC(=O)C(Cc2ccccc2)n2cccc2)n1 (centres undefined) | – | inconclusive [activator, partial curve] |
| CCCn1nc(C(=O)Nc2nc(-c3ccccn3)cs2)c2ccccc2c1=O | – | active: 10 µM |
| Cc1ccccc1-c1nc(CN2CCCC(C(=O)NCCCN3CCOCC3)C2)c(C)o1 (centres undefined) | – | inconclusive [activator, single point] |
| Cc1cc(C)c(NS(=O)(=O)c2ccccc2)c(C)c1 | – | inconclusive [activator, partial curve, poor fit] |
| CCOc1ccc(NC(=O)CN2C(=O)C(c3ccccc3)=NC23CCCCCC3)cc1 | inactive: 8.25% | – |
| CC1CCCN(S(=O)(=O)c2ccc(C(=O)Nc3nnc(C4CC4)o3)cc2)C1 (centres undefined) | – | inconclusive [activator, partial curve, poor fit] |
| CCOc1ccccc1NC(=O)C1CCN(C(=O)C2CC(=O)N(c3ccc(C)cc3)C2)CC1 (centres undefined) | inactive: 11.3% | – |
| Cc1cnc(NC(=O)CSc2ccc(Cl)cc2)s1 | – | inconclusive [activator, single point] |
| Cc1ccc(N2CCN(C(=O)c3nn(C)c4c3CSc3ccccc3-4)CC2C)cc1 (centres undefined) | inactive: -17.7% | – |
| CC1(C(=O)Nc2ccc(Cl)c(Cl)c2)CCN1CCc1ccccc1 (centres undefined) | inactive: 22.3% | – |
| Cc1ccc(C)c(S(=O)(=O)N/N=C/c2ccc(N3CCOCC3)cc2)c1 | – | inconclusive [activator, full curve, poor fit] |
| O=C(OC(C(=O)Nc1ccc([N+](=O)[O-])cc1Br)c1ccccc1)c1ccccc1 (centres undefined) | – | inconclusive [activator, partial curve, poor fit] |
| CCCNC(=O)c1cc(C2CCCCN2S(=O)(=O)c2cccc3cccnc23)on1 (centres undefined) | inactive: 5.09% | – |
| Cc1cccc(NC(=S)N2CCC(c3nc4ccccc4o3)CC2)c1C | – | inconclusive [activator, partial curve, poor fit] |
| O=C(NCCC1=CCCCC1)c1ccc2c(c1)N(Cc1ccccc1)C(=O)c1ccccc1S2(=O)=O | inactive: 0.416% | – |
| N/C(=N\OC(=O)c1ccc(Cl)c([N+](=O)[O-])c1)c1ccccc1 | inactive: -9.16% | – |
| COc1ccc(CNC(=O)c2nc(S(=O)(=O)Cc3ccccc3)ncc2Cl)cc1 | – | inactive |
| Cc1ccccc1NC(=S)N(Cc1ccccn1)Cc1ccccc1Cl | – | active: 12.6 µM |

| SMILES | growth rescue | Potency |
| --- | --- | --- |
| COc1ccc(C(=O)CN2CC(C)SC2=Nc2ccc(Cl)cc2)cc1 (centres undefined) | – | inconclusive [activator, partial curve, poor fit] |
| CCOc1cccc(Nc2ccc([N+](=O)[O-])cn2)c1 | – | inconclusive [activator, single point] |
| CCn1c2ccccc2c2cc(NC(=O)COc3ccc(OC)cc3)ccc21 | – | inconclusive [activator, partial curve] |
| O=C1CC(N2CCN(c3ccc(Cl)cc3)CC2)C(=O)N1c1ccc(F)cc1 (centres undefined) | – | inconclusive [activator, single point] |
| OC[C@@H]1[C@@H](c2ccccc2)C(c2ccc(F)cc2)=NN1c1ccccc1 | – | inconclusive [activator, single point] |
| N#Cc1ccccc1NC(=O)COC(=O)/C=C/c1cn(-c2ccccc2)nc1-c1ccc(Cl)cc1 | inactive: -6.21% | – |
| CCCCOc1ccc(/C=C/C(=O)Nc2ccc([N+](=O)[O-])cc2C)cc1 | – | inconclusive [activator, partial curve, poor fit] |
| CC(=O)Cc1nsc(Nc2ccc(Cl)cc2)n1 | – | inconclusive [activator, partial curve, poor fit] |
| Cc1ccc(SCc2nc(N)nc(Nc3ccccc3C)n2)c(C)c1 | – | inconclusive [activator, single point] |
| C=CCn1cc(C(=O)NCCCOCC)c(=O)c2cc(S(=O)(=O)N(CC)CC)ccc21 | – | inconclusive [activator, partial curve, poor fit] |
| O=C1C2C3C=CC(C3=C3CCCCC3)C2C(=O)N1c1ccccc1 (centres undefined) | inactive: -82.5% | – |
| CSc1cccc(NC(=S)NN(C)C)c1 | – | inconclusive [activator, partial curve, poor fit] |
| O=C(CN1CCCc2ccccc21)Nc1ccc(F)cc1[N+](=O)[O-] | – | inconclusive [activator, single point] |
| O=C(Nc1nccs1)C1CCN(S(=O)(=O)c2c(Cl)cccc2Cl)CC1 | – | inconclusive [activator, single point] |
| CCC(NC(=O)C1(C)CC1(Br)Br)c1ccc(C)cc1 (centres undefined) | – | inconclusive [activator, partial curve, poor fit] |
| CCOC(=O)c1sc2ncnc(NCc3ccco3)c2c1C | – | inconclusive [activator, single point] |
| Cc1ccc(-c2ccc(=O)n(CC(=O)Nc3ccc(C(C)C)cc3)n2)cc1 | inactive: 5.22% | – |
| CCOC(=O)Cn1c(=NC(=O)CSC(C)=O)sc2ccccc21 | – | inconclusive [activator, single point] |
| O=C(/C=C/c1c(F)cccc1Cl)c1ccc(O)cc1 | – | inconclusive [activator, partial curve, poor fit] |
| O=C(NC(=S)Nc1ccc(Br)cc1)C1CCCCC1 | – | inconclusive [activator, full curve, poor fit] |
| Cc1ccc(C(=O)N/N=C\c2ccc3c(c2)OCO3)cn1 | inactive: -7.16% | – |
| CCOc1ccc(C2CC(c3cccc(OC)c3)Nc3ncnn32)cc1 (centres undefined) | – | inconclusive [activator, partial curve] |
| COc1ccc(N(Cc2cccs2)C(=O)COc2ccc([N+](=O)[O-])cc2)cc1 | inactive: 0.245% | – |

| SMILES | growth rescue | Potency |
| --- | --- | --- |
| COc1ccccc1N1CCN(C(c2ccccn2)c2nnnn2C2CCCCC2)CC1 (centres undefined) | inactive: 12.7% | – |
| C/C(=N\NC(=S)NCc1ccccc1)c1ccccc1F | – | active: 11.2 µM |
| CC(C)OC1(c2ccccc2)OC(=O)c2ccccc21 (centres undefined) | – | inconclusive [activator, partial curve, poor fit] |
| CN1C(=O)N2CN(C3CCCCC3)CN3C(=O)N(C)C1C23 (centres undefined) | inconclusive: -47.9% [activator] | – |
| Cc1ccc(SCC(=O)OCC(=O)NCCNC(=O)COC(=O)CSc2ccc(C)c(C)c2)cc1C | – | inconclusive [activator, single point] |
| CC12CN(NC(=O)c3ccc(Cl)cc3)C3(C#N)CC1CCC23C (centres undefined) | – | inconclusive [activator, single point] |
| NS(=O)(=O)c1ccc(S(=O)(=O)c2ccccc2)nc1 | inactive: -1.2% | – |
| CN(CC(=O)Nc1ccccc1Cl)C(=O)CSc1nncs1 | inactive: -15.4% | – |
| CCCCn1c(N)c(N(CCC)C(=O)C2CCCC2)c(=O)[nH]c1=O | – | inconclusive [activator, single point] |
| CCCOc1ccc(CCc2n[nH]c(=S)n2-c2ccccc2)cc1 | – | inconclusive [activator, partial curve, poor fit] |
| COc1cccc(-c2nc(SCC(=O)N3CCc4ccccc43)c3c(=O)n(C)c(=O)n(C)c3n2)c1 | inactive: -7.49% | – |
| CCc1ccc(S(=O)(=O)c2nnn(-c3cccc(C)c3)c2N)cc1 | inactive: -3.38% | – |
| CC(C)c1ccc2oc(=O)cc(CN3CCN(c4ccccc4)CC3)c2c1 | – | inconclusive [activator, single point] |
| COc1cc(OC)c(Nc2ncnc3onc(-c4cccc(Cl)c4)c23)cc1Cl | inactive: -1.39% | – |
| Cc1ccc(C)c(N2CCN(C(=O)CCc3nc(-c4ccc(F)cc4)no3)CC2)c1 | – | inconclusive [activator, single point] |
| CS(=O)(=O)N(CC(=O)N1CCN(c2ccc(F)cc2)CC1)c1ccc(F)c(Cl)c1 | – | inconclusive [activator, single point] |
| O=C(N/N=C/c1ccccc1[N+](=O)[O-])c1ccc(COc2ccccc2-c2ccccc2)cc1 | – | inconclusive [activator, partial curve, poor fit] |
| CCN(CC)S(=O)(=O)c1ccc(N2CCOCC2)c(NC(=O)C23CC4CC(CC(Cl)(C4)C2)C3)c1 | inactive: -3.41% | – |
| CC1=NN(c2ccccc2)C(=O)C1C(=O)C(=O)Nc1ccc(F)cc1 (centres undefined) | – | inconclusive [activator, partial curve, poor fit] |
| c1ccc(OCCn2c(COc3ccccc3)nc3ccccc32)cc1 | inactive: 2.33% | – |
| CCCCc1ccc(NC(=S)N2CCCC2)cc1 | – | active: 11.2 µM |
| COC(=O)C(C)(C)NC(=O)c1cccs1 | – | inconclusive [activator, full curve] |
| COc1cc(NS(=O)(=O)c2ccc3ccccc3c2)c2ncccc2c1 | – | inconclusive [activator, partial curve, poor fit] |

Source: PubChem BioAssay AID1347071 (National Center for Advancing Translational Sciences (NCATS), 2019)
